These are yes or no findings as the source states them, for the method shown. Binding seen in cells or lysates may run through a third protein. Some binding calls cover weakened binding; strength is not graded here. Where a sequence is shown, tags or fusion partners need not be part of it.
Columns and labels:
Experiment in all cases: co-IP; octylglucoside-solubilized extracts of sed4Δ sec16Δ cells; immunoprecipitation with anti-V5 antibody, blot with anti-HA and anti-V5; 25 mM HEPES pH 8.0, 50 mM NaCl, 1 mM EDTA, 5% glycerol, 4°C
[1] = biological target: T1, Sed4^ΔHDEL–V5 (S. cerevisiae) (UniProt P25365)
T1 sequence: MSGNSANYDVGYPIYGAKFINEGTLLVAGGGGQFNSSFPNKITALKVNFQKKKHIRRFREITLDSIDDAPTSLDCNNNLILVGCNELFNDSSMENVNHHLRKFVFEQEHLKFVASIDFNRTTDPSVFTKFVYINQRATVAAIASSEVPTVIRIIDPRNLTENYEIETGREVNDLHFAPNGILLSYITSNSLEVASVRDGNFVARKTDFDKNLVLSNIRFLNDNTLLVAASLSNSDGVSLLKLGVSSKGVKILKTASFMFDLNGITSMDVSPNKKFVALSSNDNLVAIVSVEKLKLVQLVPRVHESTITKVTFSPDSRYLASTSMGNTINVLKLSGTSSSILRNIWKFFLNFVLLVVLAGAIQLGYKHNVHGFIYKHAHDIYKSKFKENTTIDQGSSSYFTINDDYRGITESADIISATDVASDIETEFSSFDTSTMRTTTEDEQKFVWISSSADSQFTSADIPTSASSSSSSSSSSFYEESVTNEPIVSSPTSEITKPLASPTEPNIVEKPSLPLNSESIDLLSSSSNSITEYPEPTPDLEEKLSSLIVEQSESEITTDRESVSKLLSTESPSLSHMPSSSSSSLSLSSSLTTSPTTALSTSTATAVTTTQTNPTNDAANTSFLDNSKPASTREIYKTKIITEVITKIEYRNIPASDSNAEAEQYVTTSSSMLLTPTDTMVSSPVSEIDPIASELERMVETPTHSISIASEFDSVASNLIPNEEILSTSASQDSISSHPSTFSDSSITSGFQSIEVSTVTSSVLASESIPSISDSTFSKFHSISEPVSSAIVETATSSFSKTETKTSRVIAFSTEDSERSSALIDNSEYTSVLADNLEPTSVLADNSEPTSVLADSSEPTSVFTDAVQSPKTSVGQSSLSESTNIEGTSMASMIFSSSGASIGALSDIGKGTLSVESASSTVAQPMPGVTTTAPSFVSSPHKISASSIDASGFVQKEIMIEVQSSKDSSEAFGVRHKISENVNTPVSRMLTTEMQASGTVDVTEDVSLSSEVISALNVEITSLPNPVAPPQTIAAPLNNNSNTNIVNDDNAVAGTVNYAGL

Sequences of proteins named here, by UniProt entry; tags and fusion partners are left off.
UniProt P48415: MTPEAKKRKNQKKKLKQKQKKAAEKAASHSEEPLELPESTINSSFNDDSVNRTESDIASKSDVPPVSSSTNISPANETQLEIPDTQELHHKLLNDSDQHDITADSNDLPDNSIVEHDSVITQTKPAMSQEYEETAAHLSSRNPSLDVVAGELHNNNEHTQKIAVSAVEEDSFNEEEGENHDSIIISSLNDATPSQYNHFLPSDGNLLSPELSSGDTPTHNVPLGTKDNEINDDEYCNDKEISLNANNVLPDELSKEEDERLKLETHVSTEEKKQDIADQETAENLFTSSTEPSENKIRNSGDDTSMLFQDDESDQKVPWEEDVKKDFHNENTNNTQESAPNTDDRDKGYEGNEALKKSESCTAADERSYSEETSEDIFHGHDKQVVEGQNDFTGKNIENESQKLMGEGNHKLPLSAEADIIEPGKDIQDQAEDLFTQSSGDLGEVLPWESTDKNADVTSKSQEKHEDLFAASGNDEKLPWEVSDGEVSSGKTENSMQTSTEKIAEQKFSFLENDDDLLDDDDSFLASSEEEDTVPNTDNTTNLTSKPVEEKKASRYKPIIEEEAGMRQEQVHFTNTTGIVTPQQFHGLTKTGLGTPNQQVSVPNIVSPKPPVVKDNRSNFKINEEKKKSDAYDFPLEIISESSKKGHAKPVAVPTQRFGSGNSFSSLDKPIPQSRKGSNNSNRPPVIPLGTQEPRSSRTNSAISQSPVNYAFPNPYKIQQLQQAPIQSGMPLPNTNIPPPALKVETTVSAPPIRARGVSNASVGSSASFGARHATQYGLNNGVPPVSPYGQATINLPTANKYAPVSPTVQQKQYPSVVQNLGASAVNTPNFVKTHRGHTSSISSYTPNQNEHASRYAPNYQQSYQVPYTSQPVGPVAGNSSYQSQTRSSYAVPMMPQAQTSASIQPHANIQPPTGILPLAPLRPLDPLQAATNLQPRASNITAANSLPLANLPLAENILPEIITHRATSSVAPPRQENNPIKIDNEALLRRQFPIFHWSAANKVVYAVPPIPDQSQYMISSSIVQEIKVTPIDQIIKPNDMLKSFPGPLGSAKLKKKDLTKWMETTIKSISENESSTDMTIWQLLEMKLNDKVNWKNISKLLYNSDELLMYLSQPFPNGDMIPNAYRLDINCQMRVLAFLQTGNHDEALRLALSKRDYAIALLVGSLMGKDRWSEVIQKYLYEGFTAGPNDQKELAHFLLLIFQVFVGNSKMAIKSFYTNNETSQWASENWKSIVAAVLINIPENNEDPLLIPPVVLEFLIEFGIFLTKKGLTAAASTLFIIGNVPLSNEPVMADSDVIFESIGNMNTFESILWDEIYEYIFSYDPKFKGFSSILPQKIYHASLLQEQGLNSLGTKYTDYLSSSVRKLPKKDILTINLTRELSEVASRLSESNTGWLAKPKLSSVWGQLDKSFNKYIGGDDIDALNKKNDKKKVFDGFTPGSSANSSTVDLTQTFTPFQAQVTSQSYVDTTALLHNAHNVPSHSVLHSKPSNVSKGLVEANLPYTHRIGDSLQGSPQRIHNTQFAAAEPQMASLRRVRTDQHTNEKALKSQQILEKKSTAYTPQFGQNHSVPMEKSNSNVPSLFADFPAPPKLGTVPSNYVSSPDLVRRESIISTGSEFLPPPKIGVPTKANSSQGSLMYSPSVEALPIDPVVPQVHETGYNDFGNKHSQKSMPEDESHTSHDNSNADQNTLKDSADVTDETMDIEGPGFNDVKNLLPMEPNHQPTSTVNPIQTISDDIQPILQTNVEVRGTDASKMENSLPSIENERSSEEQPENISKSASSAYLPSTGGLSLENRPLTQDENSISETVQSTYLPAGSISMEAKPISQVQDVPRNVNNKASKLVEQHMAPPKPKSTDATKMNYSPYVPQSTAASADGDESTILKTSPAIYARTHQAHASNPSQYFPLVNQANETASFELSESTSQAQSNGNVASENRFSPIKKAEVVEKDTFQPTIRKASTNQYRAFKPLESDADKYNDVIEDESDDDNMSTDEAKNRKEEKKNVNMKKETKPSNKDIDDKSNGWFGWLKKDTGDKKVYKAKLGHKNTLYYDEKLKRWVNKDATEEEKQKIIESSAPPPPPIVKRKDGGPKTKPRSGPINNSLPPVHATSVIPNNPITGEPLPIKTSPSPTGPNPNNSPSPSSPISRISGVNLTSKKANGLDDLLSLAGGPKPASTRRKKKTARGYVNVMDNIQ

Sed4–V5 (S. cerevisiae) = biological target: T2, Sed4–V5 (S. cerevisiae) (UniProt P25365)
T2 sequence: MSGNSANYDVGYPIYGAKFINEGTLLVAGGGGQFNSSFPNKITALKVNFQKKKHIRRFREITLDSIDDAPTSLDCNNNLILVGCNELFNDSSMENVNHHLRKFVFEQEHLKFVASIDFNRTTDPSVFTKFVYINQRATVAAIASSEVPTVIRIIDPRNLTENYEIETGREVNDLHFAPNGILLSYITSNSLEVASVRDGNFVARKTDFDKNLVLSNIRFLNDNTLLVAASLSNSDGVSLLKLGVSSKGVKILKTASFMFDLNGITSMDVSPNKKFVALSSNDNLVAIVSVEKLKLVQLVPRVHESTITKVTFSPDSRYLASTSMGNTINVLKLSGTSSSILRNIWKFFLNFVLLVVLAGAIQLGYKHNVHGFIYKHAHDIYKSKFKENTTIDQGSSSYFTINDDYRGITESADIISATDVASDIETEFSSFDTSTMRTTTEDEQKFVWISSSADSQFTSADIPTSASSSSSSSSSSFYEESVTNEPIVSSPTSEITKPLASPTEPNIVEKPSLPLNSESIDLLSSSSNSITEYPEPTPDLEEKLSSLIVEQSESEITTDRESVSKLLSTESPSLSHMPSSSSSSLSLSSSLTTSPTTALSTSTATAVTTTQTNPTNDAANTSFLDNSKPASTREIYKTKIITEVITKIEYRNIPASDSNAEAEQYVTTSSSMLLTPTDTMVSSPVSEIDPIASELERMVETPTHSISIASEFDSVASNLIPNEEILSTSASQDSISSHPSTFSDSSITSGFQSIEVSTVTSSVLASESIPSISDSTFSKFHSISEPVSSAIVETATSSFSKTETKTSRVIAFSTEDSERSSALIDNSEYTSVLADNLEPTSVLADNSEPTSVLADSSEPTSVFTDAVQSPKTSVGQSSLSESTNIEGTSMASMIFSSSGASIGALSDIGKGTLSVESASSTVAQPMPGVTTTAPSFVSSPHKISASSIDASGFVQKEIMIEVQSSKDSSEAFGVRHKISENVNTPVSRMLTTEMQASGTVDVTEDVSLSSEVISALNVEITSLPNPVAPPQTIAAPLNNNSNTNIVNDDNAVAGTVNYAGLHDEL

[2] = biological target: T3, Sed4–V5^HDEL (S. cerevisiae) (UniProt P25365)
T3 sequence: T2 sequence

- binding [1]: binds
- binding (Sed4–V5 (S. cerevisiae)): binds
- binding [2]: binds
Substance: Sec16–HA (from UniProt P48415 1-2195)

From PMC10184828
